Measured values taken from the supplement of paper PMC3334620.
The full ranking holds about 33,000 sequences; the median of “E-score (-0.5 to 0.5)” is about -0.036, and the highest 2% start at about 0.37. The list shows a part of the results.

biological target: T1, Yer064c (UniProt P40041); assay: PBM E-score (8-mer binding enrichment) (E-score (-0.5 to 0.5)); higher = stronger / more preferred TF binding; most listed sequences are background and not binding sites; conditions: protein concentration: 200 nM; construct: GST-full length
T1 sequence: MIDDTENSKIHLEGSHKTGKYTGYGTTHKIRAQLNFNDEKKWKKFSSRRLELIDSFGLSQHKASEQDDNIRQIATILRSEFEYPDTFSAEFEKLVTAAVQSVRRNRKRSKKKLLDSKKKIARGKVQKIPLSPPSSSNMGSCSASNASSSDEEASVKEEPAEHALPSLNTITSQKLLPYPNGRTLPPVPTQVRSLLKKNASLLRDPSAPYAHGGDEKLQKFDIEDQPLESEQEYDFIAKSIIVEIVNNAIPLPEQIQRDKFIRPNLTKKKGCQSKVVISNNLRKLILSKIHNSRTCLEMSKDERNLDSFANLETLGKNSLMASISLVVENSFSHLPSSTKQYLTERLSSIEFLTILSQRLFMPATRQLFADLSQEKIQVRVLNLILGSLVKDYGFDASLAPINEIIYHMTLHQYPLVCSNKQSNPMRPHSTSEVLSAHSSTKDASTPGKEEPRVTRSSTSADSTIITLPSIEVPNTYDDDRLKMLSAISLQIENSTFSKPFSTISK
Experimental: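 Universal 'all 10-mer' protein binding microarrays (Agilent AMADID 015681) probed with GST-tagged S. cerevisiae TFs (full-length or DBD) made by in vitro transcription/translation (PURExpress), about 100-200 nM. Bound TF was detected with fluorescent anti-GST. Each ungapped 8-mer (which stands for itself and its reverse complement) is scored by the PBM enrichment score (E-score), a modified Wilcoxon-Mann-Whitney statistic from -0.5 to +0.5, computed with the Universal PBM Analysis Suite. Scale: above 0.35 generally sequence-specific binding.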

Row | Sequence | PBM E-score
1 | AGGTCTTA | 0.0474
2 | CGTCGGCC | -0.117
3 | ATGACAAG | 0.0335
4 | GACTTGGC | 0.0694
5 | GAGCCTTA | -0.123
6 | GTACGTAC | -0.014
7 | GCAAAACA | -0.0508
8 | GTCATTCA | 0.247
9 | AATACTAT | 0.0492
10 | CCCTCGAC | -0.201
11 | ACCCGTAA | 0.0128
12 | CGCGGGGA | -0.0848
13 | AAGATATA | -0.0424
14 | ATCTATCA | 0.0604
15 | CCTGTGTA | 0.205
16 | CTGCAACA | -0.0766
17 | AGAGCAAA | -0.098
18 | CCAAGAGG | -0.262
19 | CAGGAGAG | -0.248
20 | AGGGTGTC | 0.0904
21 | AGAGATAC | -0.0567
22 | AAGGAGGC | -0.402
23 | ATAGAATA | 0.089
24 | CAAGACCA | -0.111
25 | CCCCCTCG | -0.433

Row | Sequence | PBM E-score
26 | GTCTGCTA | 0.0961
27 | ATTATGGG | 0.135
28 | ACTTCTGC | 0.0742
29 | CATGACGC | -0.00343
30 | GTTCAGAA | 0.00278
31 | AACATTCG | -0.107
32 | AATTACCG | -0.0624
33 | ACAGACCC | 0.0828
34 | TACCTGAA | 0.086
35 | AACAAGAA | 0.12
36 | AGTGGATG | -0.089
37 | AAAGCCCG | -0.155
38 | GTATTACA | -0.00195
39 | CTGCGCGC | -0.0146
40 | AACTATCA | 0.104
41 | CGGTGCCA | -0.377
42 | ACGGCCTA | -0.212
43 | AAAGGTGG | -0.103
44 | TCCGCGCA | -0.11
45 | ACCTGAGC | -0.121
46 | ACGATTAA | 0.26
47 | ACTCAGAT | 0.339
48 | AGATGGCA | -0.164
49 | TCTATTCA | 0.129
50 | AGCGGTCA | -0.0499

Row | Sequence | PBM E-score
51 | CATTCGGC | -0.121
52 | GGCTGACA | -0.117
53 | CGTACATA | 0.0237
54 | TACTTCTA | 0.0324
55 | AATACAGA | 0.0731
56 | ACGAGAGG | -0.32
57 | AAGCCGAG | -0.155
58 | ACCCGACT | 0.233
59 | GCGAATCC | -0.066
60 | GACGCGAC | 0.0301
61 | GTTTTGTA | 0.121
62 | CTCCCTTC | -0.0477
63 | CTCTTGAC | 0.143
64 | AACGGGTC | -0.197
65 | AGCAAGAT | 0.0139
66 | AAGAGGCC | -0.198
67 | AGCGCCCT | -0.113
68 | GTTCGTGA | -0.108
69 | AGTACGTA | 0.129
70 | CAAAGTGG | 0.0067
71 | GACCGACC | -0.17
72 | GTGACCGA | -0.162
73 | GGTAGACC | -0.168
74 | ACGAAGCG | -0.0977
75 | CTTGCGCC | -0.262

Row | Sequence | PBM E-score
76 | CAGGTCCA | -0.00679
77 | ATCGACGA | 0.208
78 | CCGACTAC | 0.325
79 | CACCACTG | -0.229
80 | CTAGTGAA | -0.0375
81 | ATCCCCAC | -0.165
82 | ACCCAAAC | 0.0204
83 | CCAGGGAC | -0.156
84 | ATGTCTTC | -0.0616
85 | GCTGATGA | 0.268
86 | GCCATTCA | -0.0419
87 | AGCTGCGA | 0.0974
88 | ATTAAGGA | 0.176
89 | ATTCTTTG | 0.14
90 | CTCTAATC | 0.155
91 | CACGAGTC | 0.39
92 | GACCGGAC | 0.116
93 | CAGCGGAG | -0.219
94 | ACCTTCGC | -0.145
95 | CAACAGCA | -0.0811
96 | ATATTGAA | 0.227
97 | AATCATAG | 0.433
98 | CAAACGAG | 0.0751
99 | CAGAACAC | -0.122
100 | GCGCTAGA | -0.0786

Row | Sequence | PBM E-score
101 | TAACTCTA | -0.17
102 | TCGCTAGA | 0.117
103 | TGGCTTAA | 0.123
104 | AAGGTTCA | -0.0459
105 | AGCACAGC | -0.0102
106 | AAGAGTAT | 0.111
107 | AGGCCGAC | -0.177
108 | TTGGCCAA | -0.142
109 | CAAATCCC | -0.155
110 | CATATCCA | -0.244
111 | CACAAGAC | 0.101
112 | AACAGGCT | -0.0957
113 | CTGTCCGA | -0.0708
114 | ATGGATCA | 0.186
115 | CCTGTGGC | -0.19
116 | AAGCCTGG | -0.155
117 | AGTTTTAA | 0.0974
118 | AGGCTACG | -0.232
119 | GCGCGAAA | -0.00022
120 | ACCGAACG | -0.00508
121 | GCTCGGAA | -0.085
122 | GCTCCCTA | -0.225
123 | CCTAAACG | -0.103
124 | GTAAAAAC | -0.0718
125 | AGCTGTGG | -0.274

Row | Sequence | PBM E-score
126 | CTGTTTGA | 0.176
127 | CGCTGTTC | -0.0614
128 | GACTTCGC | 0.342
129 | AGTCCCTG | 0.0758
130 | CCCTAGAC | -0.042
131 | AATGTAGG | -0.361
132 | CTAATCCA | -0.121
133 | CAGAACCG | -0.104
134 | GAACTATC | -0.0607
135 | TAGCCCAA | -0.0904
136 | CAACAAAC | -0.0194
137 | GTGCACAC | -0.0262
138 | ACACTCTG | -0.0556
139 | ATAGCGCG | -0.177
140 | CCGCCACC | -0.187
141 | ACTCTGCG | 0.204
142 | GCTTCTCC | -0.287
143 | TTCGCCAA | 0.00308
144 | CTGGTACC | -0.164
145 | CGTCAATA | -0.192
146 | ATGCGGAC | -0.125
147 | CATCGGCG | -0.0687
148 | ACAGTGAC | 0.315
149 | GGTACCAC | -0.11
150 | ATTTGGCG | -0.116

Row | Sequence | PBM E-score
151 | AGACTCGA | 0.292
152 | ATAGTACC | -0.0556
153 | CTCTGGAC | 0.0121
154 | CTCGGCTA | -0.137
155 | GCATAAGA | 0.0166
156 | AATACCAC | -0.172
157 | ATTGCCAG | -0.0482
158 | AAGTCAGC | 0.422
159 | AGCACTGC | -0.184
160 | AAATTTTG | -0.0478
161 | ACTGTCCT | 0.168
162 | AATTTCGG | -0.202
163 | GGTTAGTA | 0.124
164 | AAAAGTAC | 0.0119
165 | ACCCCTTG | -0.213
166 | ACTAGTTC | 0.167
167 | ATGTTACA | -0.0164
168 | CCAGATTA | 0.0415
169 | ATATACAG | -0.00932
170 | CACTGTTC | -0.0848
171 | TAAGTTCA | 0.0693
172 | CTAGCAGC | -0.117
173 | GCGAACGC | -0.058
174 | CAGCTTGC | -0.25
175 | GCAGTCTA | 0.132

Row | Sequence | PBM E-score
176 | GCATCGTA | -0.187
177 | AGTTCGGG | -0.0826
178 | CGCAGTAA | -0.0527
179 | GCAGCTAA | -0.15
180 | GAAATTAC | 0.0771
181 | ATCTGCAG | 0.0941
182 | CGCGACCG | -0.0473
183 | GAGAGCGC | -0.354
184 | ACGCCTAT | -0.228
185 | TCGACTCA | 0.435
186 | CAAGCCGG | -0.108
187 | AAGCTTTC | -0.139
188 | ATTTCCTA | 0.128
189 | TCAGCAAA | 0.0671
190 | ATCCGTCA | -0.0657
191 | AAGTTTCT | 0.0369
192 | ACGGGCGG | -0.296
193 | AGCATCGG | -0.204
194 | GGTTTCCA | -0.211
195 | CGTTAGCA | 0.0131
196 | GACGAAAA | 0.0804
197 | AGGATCTG | -0.126
198 | CTTAGCCC | -0.0619
199 | AGCCGGCT | -0.331
200 | ACTGCTAC | 0.0279

Row | Sequence | PBM E-score
201 | AGTTAGTA | 0.196
202 | GTTGTTAA | -0.0114
203 | GCTATAAA | -0.0214
204 | CTTAGCAC | 0.032
205 | CCTGAATC | 0.297
206 | TATGGAGA | -0.131
207 | AGGTACCT | -0.0896
208 | CGTTCGTA | -0.0921
209 | ACGTACCG | -0.0721
210 | GAATGATC | 0.0514
211 | CGTAAGAG | 0.144
212 | ACCATACA | -0.0449
213 | GCTAAGAA | -0.0294
214 | AACCTACG | -0.26
215 | CAATATGG | 0.0763
216 | CTCGACAA | -0.101
217 | GTTTTGGA | 0.197
218 | ACCCGTGG | -0.162
219 | ATCGATAA | -0.016
